Source: the antibiotic and cytotoxicity screens of Wong et al. (2023)
The other results are listed elsewhere or left out.

Key:
HSkMC = human skeletal muscle cells; assay: cytotoxicity call (relative viability < 0.9); details: 10 µM
HepG2 = assay: cytotoxicity call (relative viability < 0.9); details: 10 µM
S. aureus RN4220 = assay: growth inhibition call (relative growth <= 0.2); details: 50 µM

C[C@@H]1CCCCO[C@@H](CN(C)Cc2ccc3c(c2)OCO3)[C@@H](C)CN([C@H](C)CO)C(=O)c2cc(NS(=O)(=O)c3ccccc3)ccc2O1
inactive: cytotoxicity call (HSkMC) | cytotoxicity call (HepG2) | growth inhibition call (S. aureus RN4220)

O=C(O)c1ccco1
inactive: cytotoxicity call (HSkMC) | cytotoxicity call (HepG2) | growth inhibition call (S. aureus RN4220)

C[C@@H]1CCCCO[C@H](CN(C)S(=O)(=O)c2cn(C)cn2)[C@H](C)CN([C@@H](C)CO)C(=O)c2cc(N(C)C)ccc2O1
inactive: cytotoxicity call (HSkMC) | cytotoxicity call (HepG2) | growth inhibition call (S. aureus RN4220)

C[C@H]1CN([C@@H](C)CO)S(=O)(=O)c2ccc(Br)cc2O[C@@H]1CN(C)S(=O)(=O)c1ccccc1
inactive: cytotoxicity call (HSkMC) | cytotoxicity call (HepG2) | growth inhibition call (S. aureus RN4220)

Cn1c(=O)[nH]c2ncn(C)c2c1=O
inactive: cytotoxicity call (HSkMC) | cytotoxicity call (HepG2) | growth inhibition call (S. aureus RN4220)

O[C@@H]1Cc2ccccc2[C@H]1O
inactive: cytotoxicity call (HSkMC) | cytotoxicity call (HepG2) | growth inhibition call (S. aureus RN4220)

CC(C)NC(=O)N(C)C[C@H]1Oc2c(NC(=O)C3CCCCC3)cccc2C(=O)N([C@H](C)CO)C[C@H]1C
inactive: cytotoxicity call (HSkMC) | cytotoxicity call (HepG2) | growth inhibition call (S. aureus RN4220)

CC(C)C(=O)NCc1nccc(N(C)C)n1
inactive: cytotoxicity call (HSkMC) | cytotoxicity call (HepG2) | growth inhibition call (S. aureus RN4220)

CC(C)NC(=O)N(C)C[C@H]1OCc2cn(nn2)CCCC(=O)N([C@@H](C)CO)C[C@@H]1C
inactive: cytotoxicity call (HSkMC) | cytotoxicity call (HepG2) | growth inhibition call (S. aureus RN4220)

C[C@H](CO)N1C[C@H](C)[C@@H](CN(C)S(=O)(=O)c2ccc(F)cc2)Oc2c(NC(=O)C3CC3)cccc2C1=O
inactive: cytotoxicity call (HSkMC) | cytotoxicity call (HepG2) | growth inhibition call (S. aureus RN4220)

C[C@H]1CN([C@@H](C)CO)C(=O)c2cccc(NC(=O)C3CC3)c2O[C@@H]1CN(C)S(=O)(=O)c1ccc(Cl)cc1
inactive: cytotoxicity call (HSkMC) | cytotoxicity call (HepG2) | growth inhibition call (S. aureus RN4220)
